Assay results from US20240199702A1, “CELL-PERMEABLE CYCLIC PEPTIDES AND USES THEREOF” (Unnatural Products Inc., priority 2021, published 2024).
At least one compound was matched to its structure with a doubt left. Where a SMILES comes first, the peptide text is derived from it. [ ]: non-standard residue; d: D form. The star is where a group is joined. Ala(4-thiazolyl) = N[C@@H](Cc1cscn1)C(=O)O; NMeAla(cPent) = CN[C@@H](CC1CCCC1)C(=O)O; Phe(4-Cl) = N[C@@H](Cc1ccc(Cl)cc1)C(=O)O; Phe(4-F) = N[C@@H](Cc1ccc(F)cc1)C(=O)O; Cyclohexanecarbonyl = O=C(C1CCCCC1)*; NMeCba = CN[C@@H](CC1CCC1)C(=O)O; NMeF = CN[C@@H](Cc1ccccc1)C(=O)O; Nicotinoyl = O=C(c1cccnc1)*; Isovaleryl = CC(C)CC(=O)*; Methoxyacetyl = COCC(=O)*; hSer = N[C@@H](CCO)C(=O)O; NMeA = CN[C@@H](C)C(=O)O; dNMeA = CN[C@H](C)C(=O)O; Bz = O=C(c1ccccc1)*; Nme = COCCNCC(=O)O; X1 = O=C(C(F)F)*; Sar = CNCC(=O)O

Legend:
Type in all cases: cell-based
MOLM-13 cells = assay: Cellular Fluorescence Assay 1 (CellTiter-Glo, 72 hours)
Procedure: Cellular Fluorescence Assay 1
(§1) MOLM-13 cells were grown in suspension in T75 flasks in RPMI medium with 10% fetal bovine serum (FBS) at 37° C. with 5% CO2. 40 μL ofMOLM-13 cells were plated into columns 1-22 of white, flat bottom, 384 well plates at a density of 1,000 cells per well in RPMI with 10% FBS. Columns 23 and 24 were filled with 40 μL of media as a positive control. 100 nL of compounds dissolved in DMSO were pin transferred into columns 3-22 of the 384 well plate. Columns 1 and 2 served as negative control wells. Plates were incubated for 72 hours at 37° C. with 5% CO2. After incubation, the cells were given 10 μL of CellTiter-Glo® (Promega®). Luminescence was read on a Molecular Devices SpectraMax i3x plate reader.

WaGa cells = assay: Cellular Fluorescence Assay 3 (CellTiter-Glo, 72 hours)
Procedure: Cellular Fluorescence Assay 3
as §1, with “WaGa” for “MOLM-13”, “of WaGa” for “ofMOLM-13”

MKL-1 cells = assay: Cellular Fluorescence Assay 4 (CellTiter-Glo, 72 hours)
Procedure: Cellular Fluorescence Assay 4
as §1, with “MKL-1” for “MOLM-13”, “MKL-1” for “ofMOLM-13”, “reader. In some embodiments, the cyclic peptide described herein is a cyclic peptide depicted in Table 1: […]” for “reader.”

MV4-11 cells = assay: Cellular Fluorescence Assay 2 (CellTiter-Glo, 72 hours)
Procedure: Cellular Fluorescence Assay 2
as §1, with “MV4-11” for “MOLM-13”, “of MV4-11” for “ofMOLM-13”

Structure (SMILES) | IC50 (MOLM-13 cells) [nM] | IC50 (WaGa cells) [nM] | IC50 (MKL-1 cells) [nM] | IC50 (MV4-11 cells) [nM]
COCC[C@@H]1NC(=O)[C@H]2CCCN2C(=O)[C@H](Cc2ccccc2)N(C)C(=O)[C@H](Cc2ccc(Cl)cc2)NC(=O)[C@H]([C@@H](C)OC(C)=O)NC(=O)[C@H](Cc2ccc(F)cc2)NC(=O)CN(CCOC)C(=O)[C@@H](C)N(C)C(=O)[C@H](Cc2cscn2)NC(=O)[C@H](C)N(C)C1=O [compound 1] (cyclo([Ala(4-thiazolyl)][dNMeA][Nme][Phe(4-F)]T(Ac)[Phe(4-Cl)][NMeF][dP][hSer](Me)[NMeA])) | 100 to 150 | 50 to 100 | < 500 | 100 to 150
COCC[C@@H]1NC(=O)[C@H]2CCCN2C(=O)[C@H](Cc2ccccc2)N(C)C(=O)[C@H](Cc2ccc(Cl)cc2)NC(=O)[C@H]([C@@H](C)OC(=O)c2ccccc2)NC(=O)[C@H](Cc2ccc(F)cc2)NC(=O)CN(CCOC)C(=O)[C@@H](C)N(C)C(=O)[C@H](Cc2cscn2)NC(=O)[C@H](C)N(C)C1=O [compound 2] (cyclo([Ala(4-thiazolyl)][dNMeA][Nme][Phe(4-F)]T(Bz)[Phe(4-Cl)][NMeF][dP][hSer](Me)[NMeA])) | ≥ 150 | 50 to 100 | 500 to 1000 | 50 to 100
COCC[C@@H]1NC(=O)[C@H]2CCCN2C(=O)[C@H](Cc2ccccc2)N(C)C(=O)[C@H](Cc2ccc(Cl)cc2)NC(=O)[C@H]([C@@H](C)OC(=O)c2cccnc2)NC(=O)[C@H](Cc2ccc(F)cc2)NC(=O)CN(CCOC)C(=O)[C@@H](C)N(C)C(=O)[C@H](Cc2cscn2)NC(=O)[C@H](C)N(C)C1=O [compound 3] (cyclo([Ala(4-thiazolyl)][dNMeA][Nme][Phe(4-F)]T(Nicotinoyl)[Phe(4-Cl)][NMeF][dP][hSer](Me)[NMeA])) | 100 to 150 | < 50 | < 500 | 50 to 100
COCC[C@@H]1NC(=O)[C@H]2CCCN2C(=O)[C@H](Cc2ccccc2)N(C)C(=O)[C@H](Cc2ccc(Cl)cc2)NC(=O)[C@H]([C@@H](C)OC(=O)COC)NC(=O)[C@H](Cc2ccc(F)cc2)NC(=O)CN(CCOC)C(=O)[C@@H](C)N(C)C(=O)[C@H](Cc2cscn2)NC(=O)[C@H](C)N(C)C1=O [compound 4] (cyclo([Ala(4-thiazolyl)][dNMeA][Nme][Phe(4-F)]T(Methoxyacetyl)[Phe(4-Cl)][NMeF][dP][hSer](Me)[NMeA])) | 100 to 150 | < 50 | < 500 | 50 to 100
COCC[C@@H]1NC(=O)[C@H]2CCCN2C(=O)[C@H](Cc2ccccc2)N(C)C(=O)[C@H](Cc2ccc(Cl)cc2)NC(=O)[C@H]([C@@H](C)OC(=O)CC(C)C)NC(=O)[C@H](Cc2ccc(F)cc2)NC(=O)CN(CCOC)C(=O)[C@@H](C)N(C)C(=O)[C@H](Cc2cscn2)NC(=O)[C@H](C)N(C)C1=O [compound 5] (cyclo([Ala(4-thiazolyl)][dNMeA][Nme][Phe(4-F)]T(Isovaleryl)[Phe(4-Cl)][NMeF][dP][hSer](Me)[NMeA])) | 50 to 100 | < 50 | < 500 | < 50
COCC[C@@H]1NC(=O)[C@H]2CCCN2C(=O)[C@H](Cc2ccccc2)N(C)C(=O)[C@H](Cc2ccc(Cl)cc2)NC(=O)[C@H]([C@@H](C)OC(=O)C(F)F)NC(=O)[C@H](Cc2ccc(F)cc2)NC(=O)CN(CCOC)C(=O)[C@@H](C)N(C)C(=O)[C@H](Cc2cscn2)NC(=O)[C@H](C)N(C)C1=O [compound 7] (cyclo([Ala(4-thiazolyl)][dNMeA][Nme][Phe(4-F)]T(X1)[Phe(4-Cl)][NMeF][dP][hSer](Me)[NMeA])) | ≥ 150 | 100 to 150 | 1000 to 2000 | ≥ 150
COCC[C@@H]1NC(=O)[C@H]2CCCN2C(=O)[C@H](Cc2ccccc2)N(C)C(=O)[C@H](Cc2ccc(Cl)cc2)NC(=O)[C@H]([C@@H](C)OC(=O)C2CCCCC2)NC(=O)[C@H](Cc2ccc(F)cc2)NC(=O)CN(CCOC)C(=O)[C@@H](C)N(C)C(=O)[C@H](Cc2cscn2)NC(=O)[C@H](C)N(C)C1=O [compound 8] (cyclo([Ala(4-thiazolyl)][dNMeA][Nme][Phe(4-F)]T(Cyclohexanecarbonyl)[Phe(4-Cl)][NMeF][dP][hSer](Me)[NMeA])) | ≥ 150 | ≥ 150 | ≥ 2000 | ≥ 150
COCC[C@@H]1NC(=O)[C@H]2CCCN2C(=O)[C@H](Cc2ccccc2)N(C)C(=O)[C@H](Cc2ccc(Cl)cc2)NC(=O)[C@H](CC2CCC2)N(C)C(=O)[C@H](Cc2ccc(F)cc2)NC(=O)CN(CCOC)C(=O)[C@@H](C)N(C)C(=O)[C@H](Cc2cscn2)NC(=O)[C@H](C)N(C)C1=O [compound 9] (cyclo([Ala(4-thiazolyl)][dNMeA][Nme][Phe(4-F)][NMeCba][Phe(4-Cl)][NMeF][dP][hSer](Me)[NMeA])) | 100 to 150 | – | – | 50 to 100
COCC[C@@H]1NC(=O)[C@H]2CCCN2C(=O)[C@H](Cc2ccccc2)N(C)C(=O)[C@H](Cc2ccc(Cl)cc2)NC(=O)[C@H](CC2CCCC2)N(C)C(=O)[C@H](Cc2ccc(F)cc2)NC(=O)CN(CCOC)C(=O)[C@@H](C)N(C)C(=O)[C@H](Cc2cscn2)NC(=O)[C@H](C)N(C)C1=O [compound 10] (cyclo([Ala(4-thiazolyl)][dNMeA][Nme][Phe(4-F)][NMeAla(cPent)][Phe(4-Cl)][NMeF][dP][hSer](Me)[NMeA])) | ≥ 150 | – | – | 100 to 150
COCC[C@@H]1NC(=O)[C@H]2CCCN2C(=O)[C@H](Cc2ccccc2)N(C)C(=O)[C@H](Cc2ccc(Cl)cc2)NC(=O)[C@H]([C@@H](C)OC)NC(=O)[C@H](Cc2ccc(F)cc2)NC(=O)CN(CCOC)C(=O)[C@@H](C)N(C)C(=O)[C@H](Cc2cscn2)NC(=O)[C@H](C)N(C)C1=O [compound 12] (cyclo([Ala(4-thiazolyl)][dNMeA][Nme][Phe(4-F)]T(Me)[Phe(4-Cl)][NMeF][dP][hSer](Me)[NMeA])) | ≥ 150 | – | – | 50 to 100
COCC[C@@H]1NC(=O)[C@H]2CCCN2C(=O)[C@H](Cc2ccccc2)N(C)C(=O)[C@H](Cc2ccc(Cl)cc2)NC(=O)[C@H](C(C)C)NC(=O)[C@H](Cc2ccc(F)cc2)NC(=O)CN(C)C(=O)[C@@H](C)N(C)C(=O)[C@H](Cc2cscn2)NC(=O)[C@H](C)N(C)C1=O [compound 13] (cyclo([Ala(4-thiazolyl)][dNMeA][Sar][Phe(4-F)]V[Phe(4-Cl)][NMeF][dP][hSer](Me)[NMeA])) | ≥ 150 | – | – | 50 to 100
